According to paper PMC7819943, “Rice protein-binding microarrays: a tool to detect cis-acting elements near promoter regions in rice”:
This is one part of the list.

Biological target: T1, OsWOX13 (Oryza sativa, UniProt Q5QMM3 1-267)
T1 sequence: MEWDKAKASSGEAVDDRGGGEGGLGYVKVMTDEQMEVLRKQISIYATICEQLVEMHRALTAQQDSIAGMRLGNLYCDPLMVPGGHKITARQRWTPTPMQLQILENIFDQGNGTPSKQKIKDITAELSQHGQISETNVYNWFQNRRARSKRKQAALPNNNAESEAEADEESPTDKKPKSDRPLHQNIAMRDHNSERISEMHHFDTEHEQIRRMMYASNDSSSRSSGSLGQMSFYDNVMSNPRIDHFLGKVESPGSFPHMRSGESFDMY
Assay: protein-binding microarray (RPBM); PBS, 2% BSA, 51.3 ng/ul salmon testes DNA, 50 uM zinc acetate, 200 nM TF, 25 C, 1 h; high values mean tight binding
Details: protein: recombinant; tags: N-terminal polyhistidine and DsRed monomer fusion (pET32a); label: CyDye5-dUTP incorporated in the synthesized complementary strand; 3' TTTTT single-stranded linker to array surface; dsDNA, one strand shown
Outline: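 Transcription factors were each fused at the N-terminus to a polyhistidine tag plus DsRed and expressed in E. coli BL21-CodonPlus before Ni–NTA purification. Binding to a double-stranded custom Agilent array was carried out with 200 nM protein at 25 °C for 1 h in PBS, 2% BSA, salmon testes DNA and 50 µM zinc acetate. The binding signal is per-feature fluorescence intensity, in arbitrary units, on an Axon 4000B scanner.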

Row | Sequence | binding signal
1 | CGTAATAAATTAAAAGGTTGCTTCTGTTACTCAGCCTAGACGGAGTCACCTAGTGCAG | 12600 fluorescence intensity (a.u.)
2 | TCAACTAAACACACCCTAATTACAACTCTCCCAAAGCCCACGGAGTCACCTAGTGCAG | 5330 fluorescence intensity (a.u.)
3 | CTATATAATTGAACTTACAACTTACATCCTTTAAATATGACGGAGTCACCTAGTGCAG | 12300 fluorescence intensity (a.u.)
4 | AATTCAGAAATCAAAGATCATGATTGGTACATTTTATTTTCGGAGTCACCTAGTGCAG | 8900 fluorescence intensity (a.u.)
5 | AATAAATTAGCAGGCGAGATCGGCCGCCATCGCAGATTCACGGAGTCACCTAGTGCAG | 5440 fluorescence intensity (a.u.)
6 | GTTTGTGTTCTTGGATTGGGTTGGGTTGGGTTGGTGAGGTCGGAGTCACCTAGTGCAG | 4350 fluorescence intensity (a.u.)
7 | TTTGATTGAGATTGATAATAACCTGCTGTAACTTAGCGAACGGAGTCACCTAGTGCAG | 61100 fluorescence intensity (a.u.)
8 | GGAGCAAATTTACATGTAAAATTTGGTATTTTCAAATACTCGGAGTCACCTAGTGCAG | 7250 fluorescence intensity (a.u.)
9 | TATAAATTTGATATGTTTTGTCAATTAATAGTTTAGTACTCGGAGTCACCTAGTGCAG | 29300 fluorescence intensity (a.u.)
10 | CAAGCAGTTGATTAGAGTATACTTAGAGGATCAATTGCTACGGAGTCACCTAGTGCAG | 9920 fluorescence intensity (a.u.)
11 | ATAATTATCGTAAATCATTCTGTCATTCAGCTATTCTTAGCGGAGTCACCTAGTGCAG | 17900 fluorescence intensity (a.u.)
12 | CCACCTCTAATGAAGAGGTGATTGCAACCATTCATCTCTTCGGAGTCACCTAGTGCAG | 12000 fluorescence intensity (a.u.)
13 | CATGGACTAATTAGACTTAAAATATTCATCTCGCGATTTTCGGAGTCACCTAGTGCAG | 24000 fluorescence intensity (a.u.)
14 | CAACTTAAATTATACTGTATTCAGAAGGTATAGCTGAGATCGGAGTCACCTAGTGCAG | 5020 fluorescence intensity (a.u.)
15 | TTTAAAATTTAAAGAGTAAATTTCATAAAACTACAGATACCGGAGTCACCTAGTGCAG | 4180 fluorescence intensity (a.u.)
16 | CTTAATTGTATGATAATTTCTTCTGATGTTTCATGCTCAACGGAGTCACCTAGTGCAG | 42300 fluorescence intensity (a.u.)
17 | GTCATCATTAATTCATTGCTGTCATTGTTTGCAAGATATTCGGAGTCACCTAGTGCAG | 4340 fluorescence intensity (a.u.)
18 | CTGCTGATTTTGCATTCGGTTTTCTGGCGGTAGATGGAAACGGAGTCACCTAGTGCAG | 5380 fluorescence intensity (a.u.)
19 | AGTTAATTACTAATTAACAATAATATACTTTAATTATTGCCGGAGTCACCTAGTGCAG | 46600 fluorescence intensity (a.u.)
20 | TTGTCCATCTGATTTAACATGAAAATCGAGGATCGAATGACGGAGTCACCTAGTGCAG | 3190 fluorescence intensity (a.u.)
21 | TAGGGTATTTCAATCACACAATTTCCGGAAAGTTTTCGACCGGAGTCACCTAGTGCAG | 12500 fluorescence intensity (a.u.)

Row | Sequence | binding signal
22 | TGCAAAAGATAAATTGGCTATATTAATAATAATAAGGGGCCGGAGTCACCTAGTGCAG | 10000 fluorescence intensity (a.u.)
23 | TGTAAATTTGAATAAATTATGACTGTTTGGTCGTACATACCGGAGTCACCTAGTGCAG | 37900 fluorescence intensity (a.u.)
24 | GTAGTTCATCCGAAGCACGTGATTGGTTGAAAATGTTTCTCGGAGTCACCTAGTGCAG | 7500 fluorescence intensity (a.u.)
25 | TTATGATTTAATTAGCGATTAATTATCCTAATTAGTGATTCGGAGTCACCTAGTGCAG | 62200 fluorescence intensity (a.u.)
26 | CGGATTGATTCTTTCTTGCTCGGCATTTCGATTGGTTTGGCGGAGTCACCTAGTGCAG | 47200 fluorescence intensity (a.u.)
27 | TATCTTGGGTAATTAGTTTTAAATTTCCCGTAATAAAATGCGGAGTCACCTAGTGCAG | 5320 fluorescence intensity (a.u.)
28 | TTGGCTATTAAATTGACTAGATGTTTTGGACCCGACAGCTCGGAGTCACCTAGTGCAG | 16700 fluorescence intensity (a.u.)
29 | AAATTGATATATTTTGCTAACTATTAATGGTATTGCGACACGGAGTCACCTAGTGCAG | 4750 fluorescence intensity (a.u.)
30 | AAACTAACCAGGATCTGGTAATTGGAACGATCCCCATTCCCGGAGTCACCTAGTGCAG | 4390 fluorescence intensity (a.u.)
31 | TTGTAATTGAGGGTTACAAATTAGATTGGACATATATTTGCGGAGTCACCTAGTGCAG | 39800 fluorescence intensity (a.u.)
32 | GTTGATGACTTTGCGAATTAAGGAGGCAGCTTTGGGTCTTCGGAGTCACCTAGTGCAG | 5950 fluorescence intensity (a.u.)
33 | GATATTAAACTAAACTGACACGCTCGTGCAGATGAGTTTGCGGAGTCACCTAGTGCAG | 7480 fluorescence intensity (a.u.)
34 | GTCTAATTATGTCATGAATTTGACAATGTGATGCTACAGTCGGAGTCACCTAGTGCAG | 21700 fluorescence intensity (a.u.)
35 | TGCAGTTAACTGAAACATTCTTTCGCTATTTGCTGAAATACGGAGTCACCTAGTGCAG | 6320 fluorescence intensity (a.u.)
36 | CGGTTGAGGAATTACTGTGATTGAAATTCGACCATAAGATCGGAGTCACCTAGTGCAG | 29300 fluorescence intensity (a.u.)
37 | TCAAAATTATATTAATATATTGCTAATACTTATGCGCTAACGGAGTCACCTAGTGCAG | 22700 fluorescence intensity (a.u.)
38 | GATATATATAATGAAATTAATTTGGTGTTGTAGATGTTGCCGGAGTCACCTAGTGCAG | 17200 fluorescence intensity (a.u.)
39 | TTATTAATTTGTAATAGGTGTATTTCGGTCTTATTAAACTCGGAGTCACCTAGTGCAG | 19600 fluorescence intensity (a.u.)
40 | TGCGGATCTAATTGCCACGTAAGCGCCACGACAATGACACCGGAGTCACCTAGTGCAG | 3380 fluorescence intensity (a.u.)
41 | TAATAATTAGTAGTGGGTGATGATATTGCACACTTGCATACGGAGTCACCTAGTGCAG | 17000 fluorescence intensity (a.u.)
42 | GTTAAAATTAGAGATGATGTGACTGAAAAGTTGTGTGTGTCGGAGTCACCTAGTGCAG | 12200 fluorescence intensity (a.u.)
